Screen size: about 310,000 compounds; about 14,000 (4.5%) showed an effect of 50% or more. Effects have a minus sign here. This is one part of the list.
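Also: peak tail current of the secondary pulse compared with the same well before compound.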

This test deals with human ether-à-go-go-related gene (hERG) potassium channel (human, UniProt Q12809). Kind of test: primary screen, population patch clamp on CHO cells stably expressing hERG.
human ether-à-go-go-related gene (hERG) potassium channel, sequence (Q12809 whole entry, looked up): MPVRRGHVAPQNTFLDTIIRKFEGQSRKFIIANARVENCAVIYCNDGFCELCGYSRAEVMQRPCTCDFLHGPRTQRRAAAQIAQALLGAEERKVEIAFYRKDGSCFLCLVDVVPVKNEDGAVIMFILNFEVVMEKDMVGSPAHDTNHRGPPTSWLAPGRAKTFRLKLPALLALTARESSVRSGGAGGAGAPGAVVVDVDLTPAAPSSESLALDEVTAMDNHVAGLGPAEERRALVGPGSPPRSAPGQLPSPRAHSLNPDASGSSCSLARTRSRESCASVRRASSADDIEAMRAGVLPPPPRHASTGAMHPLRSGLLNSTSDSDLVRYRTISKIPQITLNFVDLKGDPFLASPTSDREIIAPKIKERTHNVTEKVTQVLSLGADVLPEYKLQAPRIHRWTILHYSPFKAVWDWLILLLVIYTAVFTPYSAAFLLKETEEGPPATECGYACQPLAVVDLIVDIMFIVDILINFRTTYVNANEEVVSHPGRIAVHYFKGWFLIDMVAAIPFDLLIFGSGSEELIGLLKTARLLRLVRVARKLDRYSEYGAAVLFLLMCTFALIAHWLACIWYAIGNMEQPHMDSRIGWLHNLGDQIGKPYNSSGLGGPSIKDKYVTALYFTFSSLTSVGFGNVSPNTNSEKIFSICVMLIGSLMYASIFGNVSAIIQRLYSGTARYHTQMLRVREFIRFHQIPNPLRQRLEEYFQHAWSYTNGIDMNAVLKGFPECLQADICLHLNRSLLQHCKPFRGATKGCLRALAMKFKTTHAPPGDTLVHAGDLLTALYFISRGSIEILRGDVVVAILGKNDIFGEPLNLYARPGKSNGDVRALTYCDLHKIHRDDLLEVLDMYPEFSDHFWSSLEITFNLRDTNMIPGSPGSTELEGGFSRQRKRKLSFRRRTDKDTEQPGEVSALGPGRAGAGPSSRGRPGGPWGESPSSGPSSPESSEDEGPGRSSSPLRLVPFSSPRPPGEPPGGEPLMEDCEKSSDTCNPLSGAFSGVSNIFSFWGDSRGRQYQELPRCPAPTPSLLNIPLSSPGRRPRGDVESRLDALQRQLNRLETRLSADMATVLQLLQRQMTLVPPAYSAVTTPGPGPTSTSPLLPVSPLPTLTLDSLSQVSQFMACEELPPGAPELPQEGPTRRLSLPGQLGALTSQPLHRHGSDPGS
Regarding `O=C(CSc1c(F)c(F)cc(F)c1F)Nc1ccc(C2SCCS2)cc1`, the “hERG current change (%, negative = inhibition) at 10uM” value worked out at 0.0732%.

`CCOC(=O)N1CCN(C2CC(=O)N(c3ccc(F)cc3)C2=O)CC1` (stereo not drawn): the “hERG current change (%, negative = inhibition) at 10uM” value is -8.16%. With `CC(=O)N(C(C)=O)S(=O)(=O)c1ccc(N=NN2CCCCC2)cc1` the figure was 7.82%. Regarding `COc1ccc(CC2(CCc3ccncc3)C(=O)NC(=O)NC2=O)cc1`, the “hERG current change (%, negative = inhibition) at 10uM” value is 22.5%. To `CC(C)(C)c1ccc(O)c(/C=N\O)c1` belongs 7.65%. As for `CN(C(=O)Cn1cccc1C1=NC(c2ccccc2)CO1)c1ccccc1` (stereo not drawn), the “hERG current change (%, negative = inhibition) at 10uM” value is -26.6%. To `CCOC(=O)Cn1nc(-c2ccccc2)c2cnc3ccc(C)cc3c21` belongs 15.7%. To `COc1ccc(OC)c(S(=O)(=O)N(C)CC(=O)N2CCc3ccccc3C2)c1` belongs -35.1%; to `CC[n+]1c(C)sc2c(C)cc(C)cc21.[I-]`, 21.6%.

Turning to `COc1ccc(NC2CCCN(C(=O)CCN3CCOCC3)C2)cc1` (stereo not drawn), the “hERG current change (%, negative = inhibition) at 10uM” value is 12.1%.

With `CCOc1ccc(N2C(=O)/C(=C\c3ccccc3OC)S(=O)(=O)C2c2cccc([N+](=O)[O-])c2)cc1` (stereo not drawn), the “hERG current change (%, negative = inhibition) at 10uM” value worked out at 5.99%. With `COc1cc(OC)c(NS(=O)(=O)c2cc(Br)cnc2N)cc1Cl`, the “hERG current change (%, negative = inhibition) at 10uM” value was -3.84%. On to `Oc1ccc(Br)cc1-c1cc(-c2ccc(Cl)cc2)n[nH]1`, for which the “hERG current change (%, negative = inhibition) at 10uM” value stood at 7.99%. As for `Cc1ccc(S(=O)(=O)C2(C(=O)O)CCCC2)cc1C`, the “hERG current change (%, negative = inhibition) at 10uM” value came out at 18.9%. Turning to `COc1cc(SC)ccc1C(=O)OCC(=O)N1CCN(C(C)=O)CC1`, the “hERG current change (%, negative = inhibition) at 10uM” value is -16.4%.

Take `COC(=O)[C@H](Cc1ccccc1)NC(=O)c1cc(COc2c(F)cccc2F)on1`: the “hERG current change (%, negative = inhibition) at 10uM” value came to 1.38%. To `CCOC(=O)c1ccc(N2CCN(c3cc(C)ccc3C)CC2)c(N)c1` belongs 16.6%. To `COc1cccc(C(=O)NN2C(=S)N(c3ccccc3)C(=O)C2CC(N)=O)c1` (stereo not drawn) belongs 16.2%.

Turning to `CC(C)C(NS(=O)(=O)c1ccc2c(c1)OCCCO2)C(=O)O` (stereo not drawn), the “hERG current change (%, negative = inhibition) at 10uM” value is listed as 14.9%. On to `Cn1c(C(=O)N2CCN(c3ccc(F)cc3)CC2)cc2ccccc21`, for which the “hERG current change (%, negative = inhibition) at 10uM” value is -3.67%. With `COC(=O)Nc1nnc(CCc2ccccc2)s1` the figure was 5.32%; with `C=C1[C@@H](C)[C@H]2[C@H](Cc3ccccc3)NC(=O)[C@]23OC(=O)/C=C/[C@H](O)CCC[C@@H](C)C/C=C/[C@H]3[C@@H]1O`, 7.39%.

As to `COc1ccccc1CN1CC(C(=O)N2CCCCCCC2)CCC1=O` (stereo not drawn), the “hERG current change (%, negative = inhibition) at 10uM” value came out at 3.22%. With `CSc1nnc2c(n1)OC(c1cn(C)c3ccccc13)N(C(C)=O)c1ccccc1-2` (stereo not drawn) the figure was 4.75%. With `C/C(=N\Nc1ccccc1)c1c(O)n(Cc2ccccc2)c(=O)[nH]c1=O` the figure was 8.42%; with `O=C(CN1CCCC1=O)NC1C2CC3CC(C2)CC1C3` (stereo not drawn), 23.4%. With `CC(Cl)C(=O)NC(=O)NC12CC3CC(CC(C3)C1)C2` (stereo not drawn), the “hERG current change (%, negative = inhibition) at 10uM” value is recorded as 4.02%.

Take `CCOc1ccc(-c2cc(C(=O)N3CCC(C)CC3)c3ccccc3n2)cc1`: the “hERG current change (%, negative = inhibition) at 10uM” value is listed as -13.5%.

As for `O=C(Nc1ccc(NC(=O)c2ccc3c(c2)OCCO3)cc1)c1ccccc1`, the “hERG current change (%, negative = inhibition) at 10uM” value was -0.166%. To `Cc1cc(C)cc(N(CC(=O)NC2CCC(C)CC2)S(=O)(=O)c2c(C)noc2C)c1` (stereo not drawn) belongs 2.34%. As for `Cc1cc(Cl)c2oc(C(=O)N(C)CC3CCOCC3)c(C)c2c1`, the “hERG current change (%, negative = inhibition) at 10uM” value is listed as -11.9%. With `Cc1ccc(COc2ccc(/C=N/NC(=O)CN3CCCCC3)cc2)cc1`, the “hERG current change (%, negative = inhibition) at 10uM” value was determined as 4.43%.

`CCCCOC(=O)CCc1c(C)[nH]c(=S)[nH]c1=O`: the “hERG current change (%, negative = inhibition) at 10uM” value was 4.2%. Regarding `CC(C)(C)OC(=O)NCCc1nnc(SCc2ccccc2)o1`, the “hERG current change (%, negative = inhibition) at 10uM” value is -1.14%. With `Cc1cc(C(F)(F)F)n2nc(-c3cnn(C)c3C(F)(F)F)cc2n1` the figure was 9.86%; with `Cc1ccc(-n2ccnc(SCC(=O)NC3CCCC3)c2=O)cc1F`, -2.25%; with `CC(C(=O)N1CCN(Cc2ccc3c(c2)OCO3)CC1)n1cc([N+](=O)[O-])cn1` (stereo not drawn), -22.3%.

For `C[C@](N)(CCP(=O)(O)O)C(=O)O.Cl`, the “hERG current change (%, negative = inhibition) at 10uM” value was -1.11%. With `Cc1ccc2nc(-c3cccnc3)cc(C(=O)Nc3ccccc3[N+](=O)[O-])c2c1`, the “hERG current change (%, negative = inhibition) at 10uM” value is -0.168%.

As for `O=C(Cc1ccc(S(=O)(=O)N2CCOCC2)s1)Nc1cc(Cl)ccc1Cl`, the “hERG current change (%, negative = inhibition) at 10uM” value is recorded as -12.6%. To `CC1=C(C(=O)NCCCOC(C)C)C2(CCC(C)CC2)OC1=O` (stereo not drawn) belongs 17.1%. For the molecule `COC(=O)c1ccc(S(=O)(=O)c2ccccc2)c(N)c1`, the “hERG current change (%, negative = inhibition) at 10uM” value amounted to 9.98%. With `CCCc1nc(Cl)c(C#N)c2c1CCCC2` the figure was 14.2%. To `CCOC(=O)c1[nH]c2ccc(Br)cc2c1NC(=O)CCN1CCC(C(=O)OCC)CC1` belongs -73.9%; to `COCCNC(=O)C(=O)NCC1OCCN1S(=O)(=O)c1ccc2c(c1)OCCO2` (stereo not drawn), 11.8%. To `COc1cc(C)ccc1OCCOCCOc1cccc2ccc(C)nc12.O=C(O)C(=O)O` belongs -29.3%. Take `COc1ccc(CNC(=O)C2CCCN(S(=O)(=O)c3ccc(-n4cnnn4)cc3)C2)cc1` (stereo not drawn): the “hERG current change (%, negative = inhibition) at 10uM” value was -8.97%. As for `CC1Cc2ccccc2N1C(=O)C1CCCN(S(=O)(=O)c2cccc3cccnc23)C1` (stereo not drawn), the “hERG current change (%, negative = inhibition) at 10uM” value is given as -16.3%. To `CCN(CC)C(=O)Oc1nnc(SC(C)C)n1-c1ccc(Cl)cc1` belongs -4.75%; to `CCC1CCCCN1CCCNC(=O)CC1Oc2ccc(C)cc2NC1=O` (stereo not drawn), -7.95%.

Regarding `C/C(=N\NC(=O)c1ccc([N+](=O)[O-])cc1)c1cc2ccccc2oc1=O`, the “hERG current change (%, negative = inhibition) at 10uM” value is -17.4%. To `COc1ccc(/C(O)=C2\C(=O)C(=O)N(Cc3ccco3)C2c2ccc(OC)cc2OC)cc1` (stereo not drawn) belongs -6.69%. Take `NC1=NC(=Nc2ccc(S(N)(=O)=O)cc2)c2ccccc21`: the “hERG current change (%, negative = inhibition) at 10uM” value was -0.155%.

With `Cn1c(-c2ccc(F)cc2)cnc1SCC(=O)Nc1ccccc1`, the “hERG current change (%, negative = inhibition) at 10uM” value worked out at 13.9%. To `CCCC1CCC(=NNC(=S)NCCc2ccccc2)CC1` (stereo not drawn) belongs -1.08%.

Turning to `CC(=O)Nc1ccc(N=Cc2ccc(OCc3ccccc3)cc2)cc1`, the “hERG current change (%, negative = inhibition) at 10uM” value amounted to 15.2%.

For `O=C1CC(SCCO)C(=O)N1c1ccccc1` (stereo not drawn), the “hERG current change (%, negative = inhibition) at 10uM” value is recorded as -3.04%.

As for `O=C(CSc1cccc2cccnc12)N/N=C/c1cccnc1`, the “hERG current change (%, negative = inhibition) at 10uM” value is on record as 8.97%.

Take `COC(=O)C(Cc1ccc(O)cc1)NC(=O)CCc1nc2ccccc2s1` (stereo not drawn): the “hERG current change (%, negative = inhibition) at 10uM” value was 8.71%.

With `COc1ccc(-n2ncc3c2CC(C)(C)CC3NC(=O)Cc2nonc2C)cc1` (stereo not drawn), the “hERG current change (%, negative = inhibition) at 10uM” value worked out at 3.4%. To `COc1cc(-c2[nH]ncc2CN2CCN(c3cccc(C)n3)CC2)cc(OC)c1OC` belongs -47.3%. With `CN1CCN(C(=O)Cc2nc3ccccc3[nH]2)CC1` the figure was -8.71%; with `CC(OC(=O)c1ccc(Cl)c(S(=O)(=O)Nc2ccc(F)cc2)c1)C(=O)NC(N)=O` (stereo not drawn), -0.582%.

Take `CC1(C(=O)N(CC(=O)NC2CCCC2)Cc2ccc(Cl)cc2)CC(=O)N=C2C=CC=CN21` (stereo not drawn): the “hERG current change (%, negative = inhibition) at 10uM” value was -4.56%. With `CC1=CC(C)(C)N2C(=O)C3(C(C#N)=C(N)Oc4cc(C)oc(=O)c43)c3cc(C)cc1c32` (stereo not drawn) the figure was -9.84%; with `COC(=O)C1=C(C)NC(=O)C1(NS(=O)(=O)c1ccc(C)cc1)C(F)(F)F` (stereo not drawn), 11.2%; with `CCOc1ccc(N(CC(=O)NCc2ccccc2Cl)S(=O)(=O)c2c(C)noc2C)cc1`, 21.4%. To `CN(CCCNC(=O)Cn1cc2c(n1)CCCC2)C1CCCCC1` belongs -13.4%; to `O=C(CSc1ccccc1)Nc1nnc(/C=C/c2ccccc2)s1`, -7.44%; to `Cc1[nH]c2ccccc2c1C(=O)COC(=O)C1CC(=O)N(Cc2ccco2)C1` (stereo not drawn), -20.6%. To `Cn1c(SCc2ccc(F)cc2)nnc1-c1cnccn1` belongs -0.9%; to `COc1cc2c(cc1OC)C(c1cc3cc4c(cc3[nH]c1=O)OCO4)N(C(=O)C1CC1)CC2` (stereo not drawn), -10.9%; to `COC(=O)c1cccc(C23CC4(C2)[C@H](CN(Cc2ccc(C(F)(F)F)cc2)[C@@H]4c2ccccc2)C3c2ccc(Cl)nc2)c1` (stereo partly drawn), 4.8%. Turning to `Cc1[nH]c(=S)sc1Cc1ccc(Cl)c(Cl)c1`, the “hERG current change (%, negative = inhibition) at 10uM” value came to 18.5%. Regarding `O=C(O)C(Cc1ccc(O)cc1)N1C(=O)c2c(Cl)c(Cl)c(Cl)c(Cl)c2C1=O` (stereo not drawn), the “hERG current change (%, negative = inhibition) at 10uM” value is -1.66%.

As to `CCOCCn1ccc2c(OCC(=O)Nc3ccccc3F)cccc2c1=O`, the “hERG current change (%, negative = inhibition) at 10uM” value is listed as -7.57%. Consider `Cc1ccc(C(NC(=O)c2ccccc2)C(Cl)(Cl)Cl)cc1` (stereo not drawn), for which the “hERG current change (%, negative = inhibition) at 10uM” value worked out at 6.09%. On to `CCCCCCCC(=O)N/N=C/c1ccncc1`, for which the “hERG current change (%, negative = inhibition) at 10uM” value is -28.2%. For the molecule `O=C(ONC1=NCCCCC1)c1ccc(Cl)cc1`, the “hERG current change (%, negative = inhibition) at 10uM” value was -2.28%. Consider `CSCCCNC(=S)N1CCN(c2ccc(C(C)=O)cc2)CC1`, for which the “hERG current change (%, negative = inhibition) at 10uM” value is listed as -37.6%.

In the case of `COC(=O)c1ccc(C2C(Oc3ccc(OC)cc3)C(=O)N2CCc2ccc(F)cc2)cc1` (stereo not drawn), the “hERG current change (%, negative = inhibition) at 10uM” value was 6.58%. To `CCOC(=O)c1sc(NC(=O)c2cc3c(s2)CCC(C)C3)nc1C` (stereo not drawn) belongs 13.8%; to `Fc1ccc(-c2csc3nnc(SCc4cccnc4)n23)cc1`, -32.9%.

For the molecule `O=C(c1ccc(-n2cccn2)cc1)N1CCc2ccccc2C1`, the “hERG current change (%, negative = inhibition) at 10uM” value is listed as -12.2%. As for `COc1ccccc1CNC(=O)CN1C(=O)COc2ccc(S(=O)(=O)NC3CCCC3)cc21`, the “hERG current change (%, negative = inhibition) at 10uM” value came out at 12.1%. With `Fc1ccc(NC(=S)Nc2cccc3ccccc23)cc1` the figure was 8.84%. With `COC(=O)c1cc(NC(=O)c2cccnc2)ccc1N1CCOCC1` the figure was 13.9%.

These data come from article PMC4336329 (PLoS ONE, 2015).
